# Where “and” joins values, the source holds several entries; their conditions need not be identical. Equal entries are not always repeated. Entries after “also recorded” stand apart in the source; their conditions may differ.
# T1: recombinant human CD48 (huCD48-huFc, huCD48-bio) (Homo sapiens, UniProt P09326)
# T1 sequence (P09326 27-220 limits assumed): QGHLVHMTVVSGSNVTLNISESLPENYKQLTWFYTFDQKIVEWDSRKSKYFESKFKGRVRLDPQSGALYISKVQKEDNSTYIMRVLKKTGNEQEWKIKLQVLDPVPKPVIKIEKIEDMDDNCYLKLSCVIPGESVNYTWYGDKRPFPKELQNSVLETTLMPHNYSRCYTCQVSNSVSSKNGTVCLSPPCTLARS
# T2: human CD48 over expressing HKB11 cells (Homo sapiens, UniProt P09326)
# T2 construct: expressed in transfected cells
# T2 sequence (P09326 27-243): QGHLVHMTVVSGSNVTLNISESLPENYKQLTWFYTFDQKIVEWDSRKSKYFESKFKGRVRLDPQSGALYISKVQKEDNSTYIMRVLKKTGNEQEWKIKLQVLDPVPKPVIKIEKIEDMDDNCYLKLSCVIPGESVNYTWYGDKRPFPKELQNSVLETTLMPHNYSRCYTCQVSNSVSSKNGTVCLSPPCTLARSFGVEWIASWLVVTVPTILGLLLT
# T3: human CD48 (Homo sapiens, UniProt P09326)
# T3 sequence (P09326 27-220): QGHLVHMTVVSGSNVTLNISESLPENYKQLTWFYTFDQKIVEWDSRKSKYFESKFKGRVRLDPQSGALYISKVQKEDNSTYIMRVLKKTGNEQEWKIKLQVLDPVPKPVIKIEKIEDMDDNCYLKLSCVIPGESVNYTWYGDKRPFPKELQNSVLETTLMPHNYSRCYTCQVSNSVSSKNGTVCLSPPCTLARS
# How the values were obtained:
# KMS-21-BM = test: Internalization and cell proliferation assay (CellTiter-Glo, with secondary anti-human Fc-VC-MMAE ADC); assay type: cell-based
# Experimental: (§1) The internalization activity of CD48 antibodies were tested against three endogenous cancer cell lines: KMS-27: JCRB No. JCRB1188 cultured in RPMI-1640+10% FBS; NCI-H929: ATCC No. CRL-9068 cultured in RPMI-1640+10% FBS+0.05 mM 2-mercaptoethanol; and KMS-21-BM: JCRB No. JCRB1185 cultured in RPMI-1640+10% FBS.
# (§2) CD48 antibodies were synthesized and expressed generally as described in Example 5. Cell lines were cultured in media that is optimal for their growth at 5% CO2, 37° C. in a tissue culture incubator. Prior to seeding for the proliferation assay, the cells were split at least 2 days before the assay to ensure optimal growth density. On the day of seeding, cell viability and cell density were determined using a cell counter (Vi-Cell XR Cell Viability Analyzer, Beckman Coulter). Cells with higher than 85% viability were seeded in white clear bottom 384-well TC treated plates (Corning cat. #3765). Cells were seeded at a density of 1,000 cells per well in 40 μL of standard growth media. Plates were incubated at 5% CO2, 37° C. overnight in a tissue culture incubator. The next day free MMAE payload, a CD48A-CysMab-VC-MMAE ADC (synthesis described in Example 5), CD48 antibodies, and a non-targeting isotype antibody were prepared at 10× in standard growth media. The MMAE free payload and CD48A-CysMab-VC-MMAE ADC were added to the cells resulting in final concentrations of 0.007-150 nM and a final volume of 50 μL per well. The prepared antibody treatments, including CD48 IgGs and a non-targeting isotype antibody, were then added to the cells resulting in final concentrations of 0.001-20 nM and a final volume of 45 μL per well. […] Plates were incubated at 5% CO2, 37° C. for 5 days in a tissue culture incubator, after which cell viability was assessed through the addition of 25 μL of CellTiter Glo® (Promega, cat #G7573), a reagent which lyses cells and measures total adenosine triphosphate (ATP) content. Plates were incubated at room temperature for 10 minutes to stabilize luminescent signals prior to reading using a luminescence reader (EnVision Multilabel Plate Reader, PerkinElmer). […]
# KMS-27 = test: as above; assay type: cell-based; settings: KMS-27, CellTiter-Glo
# Experimental: as §1, §2
# NCI-H929 = test: as above; assay type: cell-based
# Experimental: as §1, §2
# [1] = test system: KMS-27, NCI-H929 and KMS-21-BM cancer cell lines; test: Internalization and cell proliferation assay, statements across the three cancer cell lines; assay type: cell-based; settings: secondary ADC at 60 nM, 5 days
# Experimental: as §1
# CD48 antibodies were synthesized and expressed generally as described in Example 5. Cell lines were cultured in media that is optimal for their growth at 5% CO2, 37° C. in a tissue culture incubator. Prior to seeding for the proliferation assay, the cells were split at least 2 days before the assay to ensure optimal growth density. On the day of seeding, cell viability and cell density were determined using a cell counter (Vi-Cell XR Cell Viability Analyzer, Beckman Coulter). Cells with higher than 85% viability were seeded in white clear bottom 384-well TC treated plates (Corning cat. #3765). […] Plates were incubated at 5% CO2, 37° C. for 5 days in a tissue culture incubator, after which cell viability was assessed through the addition of 25 μL of CellTiter Glo® (Promega, cat #G7573), a reagent which lyses cells and measures total adenosine triphosphate (ATP) content. Plates were incubated at room temperature for 10 minutes to stabilize luminescent signals prior to reading using a luminescence reader (EnVision Multilabel Plate Reader, PerkinElmer). […]
# [2] = test system: recombinant cynomolgus CD48 (cyCD48-huFc); test: ELISA binding of purified antibodies to recombinant CD48; settings: plate coated at 5 μg/mL
# Experimental: (§3) Purified Antibodies tested in ELISA for binding to recombinant human and cynomolgus CD48. Black Maxisorp™ (Nunc) 384 well plates (Thermofischer, 460518) were coated with 20 μl huCD48-huFc, cyCD48-huFc, huCD48-bio, or BSA as control (Sigma, A7906) diluted in PBS at 5 μg/mL overnight at 4° C. The next day, plates were washed three times with 120 μL/well with TBST (TBS-0.05% Tween20). Plates were blocked with 120 μL/well of 5% milk powder/PBS for 3 h at room temperature and washed three times with 120 μL/well with TBST. Antibodies were 1:3 diluted from 100 nM down to 45 μM and 20 μL/well added. After 1 hour incubation at room temperature, plates were washed 3 times with 120 μL/well with TBST. For detection, 20 μl AP conjugated anti-hulgG, Fab fragment specific (Jackson, 109-055-097) in 0.25% milk powder/PBS+0.05% Tween20 at 1:5000 dilution was added per well. After 1 hour incubation at room temperature, plates were washed 3 times with 120 μL/well with TBST. Attophos fluorescence substrate (Roche, 11681982001) was diluted 1:5 in water and 20 μL/well added, incubated for 10 min and the absorbance measured at 405 nm.
# [3] = molecular target: T1, recombinant human CD48 (huCD48-huFc, huCD48-bio); test: as above; settings: plate coated at 5 μg/mL
# Experimental: as §3
# [4] = test system: cynomolgus CD48 over expressing HKB11 cells; test: FACS binding of purified antibodies to cell expressed CD48; settings: antibodies at 100, 10 and 1 μg/ml
# Experimental: (§4) Purified Antibodies tested for binding to cell expressed human and cynomolgus CD48. 5×10^5 human or cynomolgus CD48 over expressing HKB11 cells as well as wild type cells were applied per staining in one well of 96 well plate (Thermo Fischer, Nunclon Delta Surface 163320). Antibodies were applied in 3 concentrations, 100, 10, and, 1 μg/ml. Antibodies were diluted in 50 μl PBS/1% FCS (FACS buffer) per well and incubate for 30 minutes on ice. Wells were washes 2 times with 250 μl FACS buffer by centrifugation at 300 g for 2 minutes and removing the supernatant by flipping the plate and patting on paper. For detection, 50 μl 1:2000 in FACS buffer diluted mouse anti-human Fab, PE-conjugated (Jackson-109-116-097) was added per well and incubate for 30 minutes on ice in the dark. Cells were washes 2 times with 250 μl FACS buffer and suspend in 200 μl FACS buffer per well for FACS analysis. Cells were analyzed on a BD Calibur.
# [5] = molecular target: T2, human CD48 over expressing HKB11 cells; test: as above; settings: antibodies at 100, 10 and 1 μg/ml
# Experimental: as §4
# cyno CD48 = test: KD determination of WT and DAPA IgG by Biacore (Protein A capture), Example 7; assay type: binding; settings: antigen Cyno CD48, Biacore Protein A capture, Exp# 1 and 2
# Experimental: (§5) Binding to human and cyno CD48 for the WT IgG and DAPA (D265A and […] mutation) variant was assessed for affinity determinations using Biacore. Kinetic rate constants was performed via SPR using the Biacore T200 instrument (Cytiva, formerly GE Healthcare Lifesciences) as described below. The Protein A capture method was utilized in order to determine kinetics for the antibodies. […] The human CD48 and cyno CD48 concentration started at 50 nM and 200 nM respectively, and were serially diluted at one part to one part for nine concentrations. Regeneration was performed at the end of each concentration washing with the Glycine pH1.5 (Cytiva, cat #BR100354). Double reference subtraction was completed to generate the final data. The raw data was fitted to a 1:1 binding model, with parameter(s) Rmax set to local.
# human CD48 = molecular target: T3, human CD48; test: as above; assay type: binding; settings: antigen Human CD48, Biacore Protein A capture, Exp# 1 and 2
# Experimental: as §5
molecule,measurement,setting,value
CD48A-CysMab-VC-MMAE (conjugate) heavy: QVQLVQSGSELKKPGASVKVSCKASGYTFTDFGMNWVRQAPGQGLEWMGWINTFTGEPSYGNVFKGRFVFSLDTSVSTAYLQISSLKAEDTAVYYCARRHGNGNVFDSWGQGTLVTVSSATKGPSVFPLAPSSKSTSGGTAALGCLVKDYFPCPVTVSWNSGALTSGVHTFPAVLQSSGLYSLSSVVTVPSSSLGTQTYICNVNHKPSNTKVDKRV[omitted - human IgG1 Fc with S375C (EU numbers)] light: EIVLTQSPDFQSVTPKEKVTITCRASQSIGSNIHWYQQKPDQSPKLLIKYTSESISGVPSRFSGSGSGTDFTLTINSLEAEDAATYYCQQSNSWPLTFGGGTKVEIKRTVAAPSVFIFPPSDEQLKSGTASVVCLLNNFYPREAKVQWKVDNALQSGNSQESVTEQDSKDSTYSLSSTLTLSKADYEKHKVYACEVTHQGLSSPVTKSFNRGEC,Span (Amax),KMS-21-BM,100.4
same,Span (Amax),KMS-27,92.9
same,Span (Amax),NCI-H929,142.4
"NY938: anti-CD48 antibody, heavy chain SEQ ID NO:65, light chain SEQ ID NO:51; affinity matured from NY258 (antibody) heavy: QVQLVQSGAEVKKPGASVKVSCKASGYTFTEYTMHWVRQAPGQGLEWMGGINPDTGDTSYNQKFTGRATLTVDKSTSTAYMELSSLRSEDTAVYYCARAQFWTTPRFAYWGQGTLVTVSSASTKGPSVFPLAPSSKSTSGGTAALGCLVKDYFPEPVTVSWNSGALTSGVHTFPAVLQSSGLYSLSSVVTVPSSSLGTQTYICNVNHKPSNTKVDKRV[omitted - human IgG1 Fc] light: DIQMTQSPSSLSASVGDRVTITCKASQDVGTAVAWYQQKPGKVPKLLIYWASTRHTGVPSRFSGSGSGTDFTLTISSLQPEDVATYYCQQYSTYPITFGQGTKLEIKRTVAAPSVFIFPPSDEQLKSGTASVVCLLNNFYPREAKVQWKVDNALQSGNSQESVTEQDSKDSTYSLSSTLTLSKADYEKHKVYACEVTHQGLSSPVTKSFNRGEC",cell killing when dosed in combination with anti-human Fc-VC-MMAE ADC,[1],activity greater than that of CD48A; also recorded: more potent than CD48A
same,binding to recombinant cynomolgus CD48 (ELISA),[2],specific binding
same,binding to recombinant human CD48 (ELISA),[3],specific binding
same,binding to cell expressed cynomolgus CD48 (FACS),[4],specific binding
same,binding to cell expressed human CD48 (FACS),[5],specific binding
NY938 DAPA: DAPA (D265A and P329A mutation) variant of NY938 IgG (antibody) heavy: QVQLVQSGAEVKKPGASVKVSCKASGYTFTEYTMHWVRQAPGQGLEWMGGINPDTGDTSYNQKFTGRATLTVDKSTSTAYMELSSLRSEDTAVYYCARAQFWTTPRFAYWGQGTLVTVSSASTKGPSVFPLAPSSKSTSGGTAALGCLVKDYFPEPVTVSWNSGALTSGVHTFPAVLQSSGLYSLSSVVTVPSSSLGTQTYICNVNHKPSNTKVDKRV[omitted - human IgG1 Fc with D265A P329A (EU numbers)] light: DIQMTQSPSSLSASVGDRVTITCKASQDVGTAVAWYQQKPGKVPKLLIYWASTRHTGVPSRFSGSGSGTDFTLTISSLQPEDVATYYCQQYSTYPITFGQGTKLEIKRTVAAPSVFIFPPSDEQLKSGTASVVCLLNNFYPREAKVQWKVDNALQSGNSQESVTEQDSKDSTYSLSSTLTLSKADYEKHKVYACEVTHQGLSSPVTKSFNRGEC,ka,cyno CD48,271000 M⁻¹ s⁻¹ and 409000 M⁻¹ s⁻¹
same,kd,cyno CD48,0.000289 s⁻¹ and 0.000316 s⁻¹
same,ka,human CD48,456000 M⁻¹ s⁻¹ and 352000 M⁻¹ s⁻¹
same,kd,human CD48,0.000115 s⁻¹ and 0.000104 s⁻¹
